# Results reported in article PMC12820563, “FoxP3 forms a head-to-head dimer in vivo and stabilizes its multimerization on adjacent microsatellites”.
# The other results are listed elsewhere or left out.
# Biological target: T1, MBP-FoxP1dN (Mus musculus, UniProt P58462 326-579)
# T1 sequence: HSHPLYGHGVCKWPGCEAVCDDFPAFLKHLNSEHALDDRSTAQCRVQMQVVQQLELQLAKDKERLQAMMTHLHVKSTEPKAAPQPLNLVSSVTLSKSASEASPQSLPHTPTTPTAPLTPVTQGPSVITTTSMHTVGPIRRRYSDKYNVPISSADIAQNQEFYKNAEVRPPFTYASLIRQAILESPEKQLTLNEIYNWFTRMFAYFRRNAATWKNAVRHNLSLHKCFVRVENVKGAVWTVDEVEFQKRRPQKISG
# Test: PD-seq (MBP pull-down with sequencing); 20 mM Tris-HCl pH 7.5, 100 mM NaCl, 1.5 mM MgCl2, 0.4 uM protein, 0.1 uM dsDNA library, 30 min, room temperature, amylose pull-down; high values mean tight binding
# Details: protein: recombinant; tags: His6-MBP; chain copies: 2; dsDNA, one strand shown
# Method in brief: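 His6-MBP-tagged mouse FoxP3 or FoxP1 fragment lacking the N-terminus, expressed in E. coli, was mixed at 0.4 µM with 0.1 µM Klenow-filled double-stranded degenerate DNA library. Incubation was 30 min at room temperature in Tris pH 7.5 buffer with NaCl and MgCl2. Complexes were caught on amylose resin and washed three times; DNA was released with proteinase K, PCR-barcoded and Illumina-sequenced. Binding is reads-per-million enrichment, pull-down over input, with replicates pooled.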
row,Sequence,binding signal
1,GATGATTGTTCTCCCAGCTGATGAATTTTGAAGGTCGAGTAAACAAATTTTCCTAATCTTTCTGTTCAAGCGCCATCTAC,0.88 RPM ratio (pull-down/input)
2,GATGATTGTTCTCCCAGCTGATGAATTTAGGGGTTCGAGTAAACAAATTTTCCTAATCTTTCTGTTCAAGCGCCATCTAC,0.92 RPM ratio (pull-down/input)
3,GATGATTGTTCTCCCAGCTGATGAATTTTCTCGATCGAGTAAACAAATTTTCCTAATCTTTCTGTTCAAGCGCCATCTAC,0.967 RPM ratio (pull-down/input)
4,GATGATTGTTCTCCCAGCTGATGAATTGCCAGGGTCGAGTAAACAAATTTTCCTAATCTTTCTGTTCAAGCGCCATCTAC,0.818 RPM ratio (pull-down/input)
5,GATGATTGTTCTCCCAGCTGATGAATTTCCTTCGTCGAGTAAACAAATTTTCCTAATCTTTCTGTTCAAGCGCCATCTAC,0.851 RPM ratio (pull-down/input)
6,GATGATTGTTCTCCCAGCTGATGAATTCGCGGACTCGAGTAAACAAATTTTCCTAATCTTTCTGTTCAAGCGCCATCTAC,0.757 RPM ratio (pull-down/input)
7,GATGATTGTTCTCCCAGCTGATGAATTCCCTTGCTCGAGTAAACAAATTTTCCTAATCTTTCTGTTCAAGCGCCATCTAC,0.789 RPM ratio (pull-down/input)
8,GATGATTGTTCTCCCAGCTGATGAATTCAGAAAATCGAGTAAACAAATTTTCCTAATCTTTCTGTTCAAGCGCCATCTAC,0.977 RPM ratio (pull-down/input)
9,GATGATTGTTCTCCCAGCTGATGAATTAAAACTCTCGAGTAAACAAATTTTCCTAATCTTTCTGTTCAAGCGCCATCTAC,0.854 RPM ratio (pull-down/input)
10,GATGATTGTTCTCCCAGCTGATGAATTCCATTTATCGAGTAAACAAATTTTCCTAATCTTTCTGTTCAAGCGCCATCTAC,1.13 RPM ratio (pull-down/input)
11,GATGATTGTTCTCCCAGCTGATGAATTTGCCGCCTCGAGTAAACAAATTTTCCTAATCTTTCTGTTCAAGCGCCATCTAC,0.901 RPM ratio (pull-down/input)
12,GATGATTGTTCTCCCAGCTGATGAATTCCACACATCGAGTAAACAAATTTTCCTAATCTTTCTGTTCAAGCGCCATCTAC,1.06 RPM ratio (pull-down/input)
13,GATGATTGTTCTCCCAGCTGATGAATTATGAGCTTCGAGTAAACAAATTTTCCTAATCTTTCTGTTCAAGCGCCATCTAC,0.932 RPM ratio (pull-down/input)
14,GATGATTGTTCTCCCAGCTGATGAATTGCAAAATTCGAGTAAACAAATTTTCCTAATCTTTCTGTTCAAGCGCCATCTAC,1.43 RPM ratio (pull-down/input)
15,GATGATTGTTCTCCCAGCTGATGAATTGGACGAGTCGAGTAAACAAATTTTCCTAATCTTTCTGTTCAAGCGCCATCTAC,0.758 RPM ratio (pull-down/input)
16,GATGATTGTTCTCCCAGCTGATGAATTGGCTTCCTCGAGTAAACAAATTTTCCTAATCTTTCTGTTCAAGCGCCATCTAC,0.842 RPM ratio (pull-down/input)
17,GATGATTGTTCTCCCAGCTGATGAATTAAACGACTCGAGTAAACAAATTTTCCTAATCTTTCTGTTCAAGCGCCATCTAC,0.802 RPM ratio (pull-down/input)
18,GATGATTGTTCTCCCAGCTGATGAATTCGCGCTCTCGAGTAAACAAATTTTCCTAATCTTTCTGTTCAAGCGCCATCTAC,0.8 RPM ratio (pull-down/input)
19,GATGATTGTTCTCCCAGCTGATGAATTCCTCATCTCGAGTAAACAAATTTTCCTAATCTTTCTGTTCAAGCGCCATCTAC,0.754 RPM ratio (pull-down/input)
20,GATGATTGTTCTCCCAGCTGATGAATTTGGCTCGTCGAGTAAACAAATTTTCCTAATCTTTCTGTTCAAGCGCCATCTAC,0.818 RPM ratio (pull-down/input)
21,GATGATTGTTCTCCCAGCTGATGAATTAGAGGAGTCGAGTAAACAAATTTTCCTAATCTTTCTGTTCAAGCGCCATCTAC,0.822 RPM ratio (pull-down/input)

row,Sequence,binding signal
1,GATGATTGTTCTCCCAGCTGATGAATTCAGCGAATCGAGTAAACAAATTTTCCTAATCTTTCTGTTCAAGCGCCATCTAC,0.907 RPM ratio (pull-down/input)
2,GATGATTGTTCTCCCAGCTGATGAATTAGTTCCCTCGAGTAAACAAATTTTCCTAATCTTTCTGTTCAAGCGCCATCTAC,1.02 RPM ratio (pull-down/input)
3,GATGATTGTTCTCCCAGCTGATGAATTGAATATATCGAGTAAACAAATTTTCCTAATCTTTCTGTTCAAGCGCCATCTAC,1.04 RPM ratio (pull-down/input)
4,GATGATTGTTCTCCCAGCTGATGAATTTAGCTCCTCGAGTAAACAAATTTTCCTAATCTTTCTGTTCAAGCGCCATCTAC,0.946 RPM ratio (pull-down/input)
5,GATGATTGTTCTCCCAGCTGATGAATTTTCCCCTTCGAGTAAACAAATTTTCCTAATCTTTCTGTTCAAGCGCCATCTAC,0.881 RPM ratio (pull-down/input)
6,GATGATTGTTCTCCCAGCTGATGAATTCAGGTTTTCGAGTAAACAAATTTTCCTAATCTTTCTGTTCAAGCGCCATCTAC,1.05 RPM ratio (pull-down/input)
7,GATGATTGTTCTCCCAGCTGATGAATTTGTCGGCTCGAGTAAACAAATTTTCCTAATCTTTCTGTTCAAGCGCCATCTAC,0.872 RPM ratio (pull-down/input)
8,GATGATTGTTCTCCCAGCTGATGAATTTGGTAAGTCGAGTAAACAAATTTTCCTAATCTTTCTGTTCAAGCGCCATCTAC,1.01 RPM ratio (pull-down/input)
9,GATGATTGTTCTCCCAGCTGATGAATTGTCCAGCTCGAGTAAACAAATTTTCCTAATCTTTCTGTTCAAGCGCCATCTAC,0.895 RPM ratio (pull-down/input)
10,GATGATTGTTCTCCCAGCTGATGAATTCTGTTAATCGAGTAAACAAATTTTCCTAATCTTTCTGTTCAAGCGCCATCTAC,1.09 RPM ratio (pull-down/input)
11,GATGATTGTTCTCCCAGCTGATGAATTTCTCAAGTCGAGTAAACAAATTTTCCTAATCTTTCTGTTCAAGCGCCATCTAC,0.832 RPM ratio (pull-down/input)
12,GATGATTGTTCTCCCAGCTGATGAATTTAAATTGTCGAGTAAACAAATTTTCCTAATCTTTCTGTTCAAGCGCCATCTAC,1.07 RPM ratio (pull-down/input)
13,GATGATTGTTCTCCCAGCTGATGAATTATAGGGCTCGAGTAAACAAATTTTCCTAATCTTTCTGTTCAAGCGCCATCTAC,0.796 RPM ratio (pull-down/input)
14,GATGATTGTTCTCCCAGCTGATGAATTACGGGTGTCGAGTAAACAAATTTTCCTAATCTTTCTGTTCAAGCGCCATCTAC,0.905 RPM ratio (pull-down/input)
15,GATGATTGTTCTCCCAGCTGATGAATTAACAACATCGAGTAAACAAATTTTCCTAATCTTTCTGTTCAAGCGCCATCTAC,2.17 RPM ratio (pull-down/input)
16,GATGATTGTTCTCCCAGCTGATGAATTGGCAAGTTCGAGTAAACAAATTTTCCTAATCTTTCTGTTCAAGCGCCATCTAC,0.817 RPM ratio (pull-down/input)
17,GATGATTGTTCTCCCAGCTGATGAATTCGATAACTCGAGTAAACAAATTTTCCTAATCTTTCTGTTCAAGCGCCATCTAC,0.893 RPM ratio (pull-down/input)
18,GATGATTGTTCTCCCAGCTGATGAATTTCCCCAGTCGAGTAAACAAATTTTCCTAATCTTTCTGTTCAAGCGCCATCTAC,0.767 RPM ratio (pull-down/input)
19,GATGATTGTTCTCCCAGCTGATGAATTCGCATCTTCGAGTAAACAAATTTTCCTAATCTTTCTGTTCAAGCGCCATCTAC,1.42 RPM ratio (pull-down/input)
20,GATGATTGTTCTCCCAGCTGATGAATTGTCCCGGTCGAGTAAACAAATTTTCCTAATCTTTCTGTTCAAGCGCCATCTAC,0.848 RPM ratio (pull-down/input)
21,GATGATTGTTCTCCCAGCTGATGAATTAACAGTTTCGAGTAAACAAATTTTCCTAATCTTTCTGTTCAAGCGCCATCTAC,1.09 RPM ratio (pull-down/input)

row,Sequence,binding signal
1,GATGATTGTTCTCCCAGCTGATGAATTCTAGTAGTCGAGTAAACAAATTTTCCTAATCTTTCTGTTCAAGCGCCATCTAC,0.92 RPM ratio (pull-down/input)
2,GATGATTGTTCTCCCAGCTGATGAATTAGCTACCTCGAGTAAACAAATTTTCCTAATCTTTCTGTTCAAGCGCCATCTAC,0.807 RPM ratio (pull-down/input)
3,GATGATTGTTCTCCCAGCTGATGAATTTTCCTCCTCGAGTAAACAAATTTTCCTAATCTTTCTGTTCAAGCGCCATCTAC,0.932 RPM ratio (pull-down/input)
4,GATGATTGTTCTCCCAGCTGATGAATTTTAACCCTCGAGTAAACAAATTTTCCTAATCTTTCTGTTCAAGCGCCATCTAC,0.796 RPM ratio (pull-down/input)
5,GATGATTGTTCTCCCAGCTGATGAATTCATTCGGTCGAGTAAACAAATTTTCCTAATCTTTCTGTTCAAGCGCCATCTAC,0.807 RPM ratio (pull-down/input)
6,GATGATTGTTCTCCCAGCTGATGAATTGCCTTTTTCGAGTAAACAAATTTTCCTAATCTTTCTGTTCAAGCGCCATCTAC,1.1 RPM ratio (pull-down/input)
7,GATGATTGTTCTCCCAGCTGATGAATTCTGTTCCTCGAGTAAACAAATTTTCCTAATCTTTCTGTTCAAGCGCCATCTAC,0.854 RPM ratio (pull-down/input)
8,GATGATTGTTCTCCCAGCTGATGAATTTCCTGATTCGAGTAAACAAATTTTCCTAATCTTTCTGTTCAAGCGCCATCTAC,0.867 RPM ratio (pull-down/input)
9,GATGATTGTTCTCCCAGCTGATGAATTTAGCCCATCGAGTAAACAAATTTTCCTAATCTTTCTGTTCAAGCGCCATCTAC,0.873 RPM ratio (pull-down/input)
10,GATGATTGTTCTCCCAGCTGATGAATTCGTGGTTTCGAGTAAACAAATTTTCCTAATCTTTCTGTTCAAGCGCCATCTAC,0.879 RPM ratio (pull-down/input)
11,GATGATTGTTCTCCCAGCTGATGAATTTAGCCCTTCGAGTAAACAAATTTTCCTAATCTTTCTGTTCAAGCGCCATCTAC,0.876 RPM ratio (pull-down/input)
12,GATGATTGTTCTCCCAGCTGATGAATTCGGAATCTCGAGTAAACAAATTTTCCTAATCTTTCTGTTCAAGCGCCATCTAC,0.853 RPM ratio (pull-down/input)
13,GATGATTGTTCTCCCAGCTGATGAATTCGCATCGTCGAGTAAACAAATTTTCCTAATCTTTCTGTTCAAGCGCCATCTAC,0.98 RPM ratio (pull-down/input)
14,GATGATTGTTCTCCCAGCTGATGAATTAGACGTGTCGAGTAAACAAATTTTCCTAATCTTTCTGTTCAAGCGCCATCTAC,0.944 RPM ratio (pull-down/input)
15,GATGATTGTTCTCCCAGCTGATGAATTTGGTGCATCGAGTAAACAAATTTTCCTAATCTTTCTGTTCAAGCGCCATCTAC,1.3 RPM ratio (pull-down/input)
16,GATGATTGTTCTCCCAGCTGATGAATTTAGATTATCGAGTAAACAAATTTTCCTAATCTTTCTGTTCAAGCGCCATCTAC,1.26 RPM ratio (pull-down/input)
17,GATGATTGTTCTCCCAGCTGATGAATTCAACGAGTCGAGTAAACAAATTTTCCTAATCTTTCTGTTCAAGCGCCATCTAC,0.741 RPM ratio (pull-down/input)
18,GATGATTGTTCTCCCAGCTGATGAATTCACACCCTCGAGTAAACAAATTTTCCTAATCTTTCTGTTCAAGCGCCATCTAC,0.863 RPM ratio (pull-down/input)
19,GATGATTGTTCTCCCAGCTGATGAATTTTACCTATCGAGTAAACAAATTTTCCTAATCTTTCTGTTCAAGCGCCATCTAC,0.846 RPM ratio (pull-down/input)
20,GATGATTGTTCTCCCAGCTGATGAATTCCTGATGTCGAGTAAACAAATTTTCCTAATCTTTCTGTTCAAGCGCCATCTAC,1.08 RPM ratio (pull-down/input)
21,GATGATTGTTCTCCCAGCTGATGAATTAGGGAAATCGAGTAAACAAATTTTCCTAATCTTTCTGTTCAAGCGCCATCTAC,1.02 RPM ratio (pull-down/input)
